Measured values published in patent publication US20190336582A1 (published 2019).

Tests used:
[1] = biological target: T1, IL-10 receptor (IL-10R1 and IL-10R2 receptor chains) on mouse cells (mouse, UniProt Q61727 17-575; Q61190 20-349); test: cell-based or functional assay
T1 sequence (looked up) 1: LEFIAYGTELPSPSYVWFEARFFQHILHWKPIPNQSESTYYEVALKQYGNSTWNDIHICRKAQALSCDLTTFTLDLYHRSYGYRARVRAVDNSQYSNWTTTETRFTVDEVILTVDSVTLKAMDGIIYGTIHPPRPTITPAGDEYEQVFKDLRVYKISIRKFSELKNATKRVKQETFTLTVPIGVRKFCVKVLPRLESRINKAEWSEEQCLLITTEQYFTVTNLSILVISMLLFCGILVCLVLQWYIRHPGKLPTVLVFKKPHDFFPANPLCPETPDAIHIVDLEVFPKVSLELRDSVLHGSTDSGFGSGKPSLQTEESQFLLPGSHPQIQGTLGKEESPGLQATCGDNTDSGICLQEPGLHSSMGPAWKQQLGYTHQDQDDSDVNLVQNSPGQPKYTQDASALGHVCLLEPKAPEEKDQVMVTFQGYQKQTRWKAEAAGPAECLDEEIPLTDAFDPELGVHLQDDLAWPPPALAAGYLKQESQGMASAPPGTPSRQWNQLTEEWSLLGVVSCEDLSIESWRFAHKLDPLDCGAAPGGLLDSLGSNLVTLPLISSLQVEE
T1 sequence (looked up) 2: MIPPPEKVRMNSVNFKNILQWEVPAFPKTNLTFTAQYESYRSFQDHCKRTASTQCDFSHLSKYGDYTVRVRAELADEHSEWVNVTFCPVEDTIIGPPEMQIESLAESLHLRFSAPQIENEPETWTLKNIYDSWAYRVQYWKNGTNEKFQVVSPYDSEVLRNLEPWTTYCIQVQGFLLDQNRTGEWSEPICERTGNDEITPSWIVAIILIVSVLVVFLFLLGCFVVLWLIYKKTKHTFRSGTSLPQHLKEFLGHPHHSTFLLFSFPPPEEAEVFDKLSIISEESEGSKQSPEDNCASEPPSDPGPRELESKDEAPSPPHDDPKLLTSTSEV

[2] = biological target: T2, IL-10 receptor (IL-10R1 and IL-10R2 receptor chains) on human PBMCs (human, UniProt Q13651 22-578; Q08334 20-325); test: cell-based or functional assay
T2 sequence (looked up) 1: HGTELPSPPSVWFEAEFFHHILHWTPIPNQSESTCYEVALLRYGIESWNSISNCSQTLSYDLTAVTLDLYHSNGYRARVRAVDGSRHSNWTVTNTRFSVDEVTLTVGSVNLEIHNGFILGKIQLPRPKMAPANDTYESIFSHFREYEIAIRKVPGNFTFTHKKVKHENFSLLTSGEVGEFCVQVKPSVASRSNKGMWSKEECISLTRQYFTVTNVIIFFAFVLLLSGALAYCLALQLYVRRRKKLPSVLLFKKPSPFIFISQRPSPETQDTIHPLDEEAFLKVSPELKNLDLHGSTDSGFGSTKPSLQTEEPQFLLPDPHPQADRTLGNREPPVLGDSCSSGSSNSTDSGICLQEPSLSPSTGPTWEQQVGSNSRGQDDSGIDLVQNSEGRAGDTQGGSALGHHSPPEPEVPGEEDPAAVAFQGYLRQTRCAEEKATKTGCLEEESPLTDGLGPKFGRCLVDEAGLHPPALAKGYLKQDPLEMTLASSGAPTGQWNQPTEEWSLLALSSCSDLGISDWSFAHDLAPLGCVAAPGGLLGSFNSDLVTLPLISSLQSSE
T2 sequence (looked up) 2: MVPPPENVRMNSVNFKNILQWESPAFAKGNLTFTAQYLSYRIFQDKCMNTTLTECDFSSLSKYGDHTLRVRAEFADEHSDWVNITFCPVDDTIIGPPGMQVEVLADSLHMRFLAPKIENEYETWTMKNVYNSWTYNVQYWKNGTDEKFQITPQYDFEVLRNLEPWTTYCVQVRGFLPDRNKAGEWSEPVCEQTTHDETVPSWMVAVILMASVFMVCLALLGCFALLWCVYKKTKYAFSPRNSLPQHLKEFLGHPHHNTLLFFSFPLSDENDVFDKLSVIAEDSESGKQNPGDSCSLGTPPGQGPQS

B1: Unsubstituted scIL-10 (10 aa linker):CL:CH1:Fc (Fc fusion)
chain: SPGQGTQSENSCTHFPGNLPNMLRDLRDAFSRVKTFFQMKDQLDNLLLKESLLEDFKGYLGCQALSEMIQFYLEEVMPQAENQDPDIKAHVNSLGENLKTLRLRLRRCHRFLPCENKSKAVEQVKNAFNKLQEKGIYKAMSEFDIFINYIEAYMTMKIRNGGSGGGGSGGSPGQGTQSENSCTHFPGNLPNMLRDLRDAFSRVKTFFQMKDQLDNLLLKESLLEDFKGYLGCQALSEMIQFYLEEVMPQAENQDPDIKAHVNSLGENLKTLRLRLRRCHRFLPCENKSKAVEQVKNAFNKLQEKGIYKAMSEFDIFINYIEAYMTMKIRNGGGGSGGGGSRTVAAPSVFIFPPSDEQLKSGTASVVCLLNNFYPREAKVQWKVDNALQSGNSQESVTEQDSKDSTYSLSSTLTLSKADYEKHKVYACEVTHQGLSSPVTKSFNRGECGGGGSGGGGSGGGGSGGGGSASTKGPSVFPLAPSSKSTSGGTAALGCLVKDYFPEPVTVSWNSGALTSGVHTFPAVLQSSGLYSLSSVVTVPSSSLGTQTYICNVNHKPSNTKVDKRV[human IgG1 Fc cut from this listing]
EC50, proliferation of mouse mast cell line MC/9 [1]: 60 pM
IC50, inhibition of TNFα production in LPS-stimulated C57BL/6 mouse PBMCs (PBMC + LPS) [1]: 0.06 pM
EC50 for STAT3 activation (percent pSTAT3+ cells), CD8 Central Memory cells in human PBMCs [2]: 194 pM
EC50 for STAT3 activation (percent pSTAT3+ cells), CD8 Effector Memory cells in human PBMCs [2]: 165 pM
EC50 for STAT3 activation (percent pSTAT3+ cells), CD8 Terminal Effector cells in human PBMCs [2]: 158 pM
EC50 for STAT3 activation (percent pSTAT3+ cells), Monocytes in human PBMCs [2]: 3.36 pM
